This passage reports binding signal results from paper PMC12136788.

T1: UNK ZnF1-3 (human, UniProt Q9C0B0 31-174)
T1 sequence: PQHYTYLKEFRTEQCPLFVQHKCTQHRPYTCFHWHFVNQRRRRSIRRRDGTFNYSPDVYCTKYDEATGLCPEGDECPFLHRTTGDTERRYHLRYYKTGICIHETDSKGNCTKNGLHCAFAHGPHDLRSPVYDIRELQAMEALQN

B1: chr2:232320318:232320319:-_ENSG00000115053_ENST00000322723|hu_hu|hu_hu_hu_mus_True|28_48 (ssRNA)
RNA: GGGAGUUCUACAGUCCGACGAUCACUAUUAAAGUCUACAAAACCAAACCCUUUGGAAGAACCAGUUUCCCGAUCAGUGACUAUUCUUGCCCGAACGGAGCCCUCAAAUGACUCCUUUAAGGUCUCUUCAGUGGUAUCCUCAGACAACAGAGGAUUGAGCAUCA
B2: chr3:55303971:55303972:+_ENSMUSG00000027797_ENSMUST00000054237|mus_hu|FALSE|FALSE (ssRNA)
RNA: GGGAGUUCUACAGUCCGACGAUCGCCGUCUACAAUGGUGGCCAGUCCAAAGUCACCCAGCUUCAGUGAUUUGCUGCCAUCUUGGUGCUCAUACACCAGCAGGUUCUCUGGCUUGAUAUCACGGUGGACGAUGUUCAGGCUAUGCAACAGAGGAUUGAGCAUCA
B3: chr9:101992667:101992668:+_ENSG00000106803_ENST00000223641|hu_hu|FALSE|FALSE (ssRNA)
RNA: GGGAGUUCUACAGUCCGACGAUCAGAUGGAUGUAACUGAAUCUACGAACGAGUGUACUUGCCCCAAAUGUGCAACAUAAAUACAGAAGCGAUGAACAGAAGACUCAUAACCAAUACUGGAACAGGGCCAACUUUGAGCCCAGGCAACAGAGGAUUGAGCAUCA
B4: chr1:63355414:63355415:+_ENSMUSG00000027520_ENSMUST00000029025|mus_hu|motif|central (ssRNA)
RNA: GGGAGUUCUACAGUCCGACGAUCUGUCACCCUCUUUCCAUGAAUUUUCUUUUUACUUUGACUUUCCAAAAGCUUAUUUCGGACUGAUUUUGGAGAGAUUUUGACAACAUCAUGAUUUAAAAAUGUUAGCUGGAAAUUUCUUUUCAACAGAGGAUUGAGCAUCA
B5: chr3:57569730:57569731:-_ENSG00000168374_ENST00000303436|hu_hu|motif|central (ssRNA)
RNA: GGGAGUUCUACAGUCCGACGAUCAUAUUCUACUGUUUCCACAUUAAAACCAAUGGUAGGAAUGGUGGUGACUAUCUCCCCGGACUUCAGUUUAUACAGAAUGGUUGUCUUGCCAGCAGCAUCCAAUCCAACCAUCAAAAUGCGCAACAGAGGAUUGAGCAUCA
B6: chr6:51416999:51417000:-_ENSMUSG00000004980_ENSMUST00000090002|mus_hu|FALSE|FALSE (ssRNA)
RNA: GGGAGUUCUACAGUCCGACGAUCAUCAAUUGAAUGAGGUCUUGCAGCCAUGGCAGCAUCAACCUCAGCCAUGGAUGAAAAAGUUACAAAACCAAAUCCUCUUGAUCUUUUGCUUGCAGGAUCCCUCAUUACCACACAGUCUGUCAACAGAGGAUUGAGCAUCA
B7: 156688934_156689054_131_5pUTR_ENSMUSG00000027637_ENSMUST00000029165|mouse|control|control (ssRNA)
RNA: GGGAGUUCUACAGUCCGACGAUCCCGCCCGCCGCUCAUCCUCCCGUCGCGCCGCCCGAGCCGGGCGUGGGGCGCGCGGGCCAAGCCGAAGGGAGUCGGGGUCUGGGACCGCGGGACUCGGCGCGCGGGGCGGCAGCGGUAGUCCAACAGAGGAUUGAGCAUCA
B8: 111894903_111895023_5806_3pUTR_ENSG00000260230_ENST00000561981|human|control|control (ssRNA)
RNA: GGGAGUUCUACAGUCCGACGAUCGUCCCUAUCUAAGAACAAGGGUGGGAAAGCCACAGUCCAUAAGCAAACCCCGCCUGCUUCCUGUUUUUGUGCAGCCUGCAAGCUAAGAAUGGUCUUUGGAUUUUUUUAAUGGCUUUCUGACAACAGAGGAUUGAGCAUCA
B9: chr2:9628331:9628332:+_ENSG00000134330_ENST00000482918|hu_hu|FALSE|FALSE (ssRNA)
RNA: GGGAGUUCUACAGUCCGACGAUCUUCUGCUACAUCCCGCCAGUAAGGAAGCAGCAAAGGUAGAGAAGAGACCUUUUUCUCUAUCAAAGGCCAGAGAUGCGAGAACAAAAAUUCAUUCCCCUUUGGAGACAAAUGUAGUCCAUCCAACAGAGGAUUGAGCAUCA
B10: 121704050_121704170_680_5pUTR_ENSMUSG00000042744_ENSMUST00000119892|mouse|control|control (ssRNA)
RNA: GGGAGUUCUACAGUCCGACGAUCUUCUACUCUGGGACUGAAUAAGGGGGAAGACCAACAGGAGGCCCACCCGGGACGUGAAGGGGGCUUGUUCAGGCUGCUGCAACAAGCCCUGGCGCUUGAGCAGGGCCAAGGUCUCUUCGUCAACAGAGGAUUGAGCAUCA
B11: chr5:145543945:145543946:-_ENSG00000133706_ENST00000545646|hu_hu|hu_hu_hu_mus_True|18_58 (ssRNA)
RNA: GGGAGUUCUACAGUCCGACGAUCCUGAACGGCCAGUGGUGGGAAAUAAUCAAGCCAGUGCUCUGCUUCAGAAAACUUUACUAUCUCGUCAUCAGAGAGCCCAAGGGAUUUCAUAAUGCCCCACUGGUACUUAGAAGAUCCUGCCAACAGAGGAUUGAGCAUCA
B12: chr7:65705844:65705845:+_ENSG00000169902_ENST00000304842|hu_mus|hu_hu_hu_mus_False|8_18 (ssRNA)
RNA: GGGAGUUCUACAGUCCGACGAUCAAACGGAUCUUUGUUACAUAAAUAAGGUGCCGGCUCCCCAUGUUUAACAAUGACCUCCAGAAGGAAGGCUUGCAUGGCAGAAUCUAGCACUUCAUCAGUAACACCAGCCUCAUCCAAGCGCAACAGAGGAUUGAGCAUCA
B13: chr11:98549071:98549072:+_ENSMUSG00000017221_ENSMUST00000017365|mus_hu|motif|central (ssRNA)
RNA: GGGAGUUCUACAGUCCGACGAUCAUCCAGCUUGUCCAGGAACUCAUAGACCCGGGCGUGAUAAUAGUAACACUUUGCGGCGGCAAGGUCUAGGGCCCGGCGGUUCUGAGUACUGAUCUUCUGCAUCAGAUCAUCAGAGAUCUUCAACAGAGGAUUGAGCAUCA
B14: chr1:60041781:60041782:+_ENSMUSG00000041040_ENSMUST00000036540|mus_hu|mus_mus_mus_hu_False|98_98 (ssRNA)
RNA: GGGAGUUCUACAGUCCGACGAUCAAGUUUACAAUAGCUCAACUUUAGCAGUAGUGGCAAAUUUUCUUUUAUUUUCCUUCACAAAAGAAAAUCUUUAUAACCCAGUCCUAGUCUUGGACAUAGUGAAAGCUAUAAAUUCUGACUCAACAGAGGAUUGAGCAUCA

Some of the results follow.

The target in this test is T1, UNK ZnF1-3. Put plainly: nsRBNS (natural sequence RNA bind-n-seq); RBNS binding buffer (assumed for nsRBNS): 25 mM Tris pH 7.5, 150 mM KCl, 3 mM MgCl2, 0.01% Triton X-100, 500 ug/ml BSA, 20 U/ml SUPERase-In, 4 C; UNK is unkempt and MSI1 is Musashi-1; names of the RNAs are library labels; protein concentration not given here; high values mean tight binding.
The molecule B1 showed a binding signal of 0.43 enrichment R. To B2 belongs 0.754 enrichment R; to B3, 1.27 enrichment R.

Molecule B4 showed a binding signal of 0.649 enrichment R. To B5 belongs 1 enrichment R; to B6, 1.09 enrichment R; to B7, 0.499 enrichment R.

B8 had a binding signal of 0.652 enrichment R. To B9 belongs 1.34 enrichment R; to B10, 0.727 enrichment R.

In the case of B11, the binding signal worked out at 1.01 enrichment R. To B12 belongs 0.41 enrichment R; to B13, 0.697 enrichment R; to B14, 0.503 enrichment R.
